According to the supplement of paper PMC11417369:
The list shows a part of the results.

Each sequence was assayed on PfSIP2 AP2 domain 1 (GST-tagged) (assay: gcPBM binding intensity (ln(normalized median fluorescence intensity)); higher = stronger DNA binding).
Method in brief: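 Binding intensity is the highest Masliner-normalised natural-log median intensity over replicate spots in either probe orientation. To obtain it, GST-tagged P. falciparum DNA-binding domains made in E. coli were incubated for 1 h on an Agilent 4 × 180k array of primer-extended double-stranded 36-bp intergenic genomic probes plus negative controls. Detection used Alexa488 anti-GST antibody with scanning at 488 nm.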
For “AATTAAAATTTTTTTTTTTTTTTTTTTTTTCTATTA [CACACA_negctrl_site1585]”, the “gcPBM binding intensity (ln)” value was 6.59.
“TATATATCCTTCTATGCATGCATATGGATAGATTTC [TGCATGCA_site58]” was tested, and the “gcPBM binding intensity (ln)” value was 6.78.
In the case of “TATATATAGAAACACACACACAAAAAAAAAAAAAAA [CACACA_site1506]”, the “gcPBM binding intensity (ln)” value is reported as 6.9.
For “ATTTAAAAAACTTTTAGCAAAAAAAAAAAATAATAA [TGCATGCA_negctrl_site191]”, the “gcPBM binding intensity (ln)” value was 6.69.
With “AAATTGATATTATATATATATATATATATATATATA [GTGCAC_negctrl_site482]” the “gcPBM binding intensity (ln)” value was 9.42.
In the case of “TTGTTTTGCTAAAAATGTACTCTATATAAAAGCTTT [XGTACX_site4027]”, the “gcPBM binding intensity (ln)” value is reported as 6.84.
With “TATATATATTATATATGTACACATATGTGAGAATGA [XGTACX_site2992]” the “gcPBM binding intensity (ln)” value was 7.6.
With “TATCAAAATAAATGCACACAAATTGCACATATCTAT [CACACA_site1097]” the “gcPBM binding intensity (ln)” value was 8.65.
In the case of “ATTTATATGTAGATGTGTACTTAATTGTAATGTGTT [XGTACX_site6422]”, the “gcPBM binding intensity (ln)” value is reported as 7.15.
For “CAAAAACATACCTACACACACAATATGTATAAATAA [CACACA_site7617]”, the “gcPBM binding intensity (ln)” value was 6.97.
For “AACTTTTTTATATGCACACATAAACAAGGATATATA [CACACA_site2874]”, the “gcPBM binding intensity (ln)” value was 7.52.
With “AAAAAAAAAAAAAACACACACACACCCATACACATA [CACACA_site2860]” the “gcPBM binding intensity (ln)” value was 7.45.
With “TACTTCGATAATAATCGTACATATATATTGTATTTA [XGTACX_site5700]” the “gcPBM binding intensity (ln)” value was 7.12.
In the case of “CAAAAAATACGATGTTGTACTATGTATTCCTGATGT [XGTACX_site246]”, the “gcPBM binding intensity (ln)” value is reported as 6.88.
With “TATATATACATAAAAACATGCAATATATACACATTA [TGCATGCA_site444]” the “gcPBM binding intensity (ln)” value was 7.07.
For “TTTTTTTGCCATATTACACACACACCGGTAAACCCC [CACACA_site8475]”, the “gcPBM binding intensity (ln)” value was 7.51.
“TATAAATAAATAAACACACACAAATAAAATAAAAAA [CACACA_site7623]” was tested, and the “gcPBM binding intensity (ln)” value was 7.05.
With “TTTATTTATTTATTCTTATTTTTTTTTTTTTTTACT [CACACA_negctrl_site257]” the “gcPBM binding intensity (ln)” value was 6.8.
For “ACATATTAGGGTCATGAACACACAAAAAAAAAAAAA [CACACA_site8218]”, the “gcPBM binding intensity (ln)” value was 6.99.
In the case of “AATTCAGCTTTACAACGTACACAATCATATGTCTAT [XGTACX_site8113]”, the “gcPBM binding intensity (ln)” value is reported as 7.07.
“TAATACATAAATGATTGTACATAAGAATTGAAACAT [XGTACX_site4583]” was tested, and the “gcPBM binding intensity (ln)” value was 7.
In the case of “ATGAAGATTTAAAAATGTACATATGATCTATGTCCT [XGTACX_site8409]”, the “gcPBM binding intensity (ln)” value is reported as 6.95.
For “TCTAGGAAAAATTATAGTACACAAAAATATATATAT [XGTACX_site4136]”, the “gcPBM binding intensity (ln)” value was 8.21.
For “TATGACACTTTGAAGGGTACATGCAGAAAAAAAAAA [XGTACX_site569]”, the “gcPBM binding intensity (ln)” value was 7.18.
“TTATATGCACTTTTTGCACACGTATGAATAACAAAA [CACACA_site1811]” was tested, and the “gcPBM binding intensity (ln)” value was 9.55.
In the case of “TATATATATTAAAAACGTACAAAATAAGAATTAATT [XGTACX_site5979]”, the “gcPBM binding intensity (ln)” value is reported as 7.24.
In the case of “GGATATATTTTATGTACACACACATATAAGGGATTA [CACACA_site4181]”, the “gcPBM binding intensity (ln)” value is reported as 7.1.
“CATAAAAATGGATACACACACATAATATATATATAT [CACACA_site3619]” was tested, and the “gcPBM binding intensity (ln)” value was 9.01.
In the case of “AAAAAAATTAATGTGTGTACTTAGATATAATGTTTA [XGTACX_site8862]”, the “gcPBM binding intensity (ln)” value is reported as 6.99.
For “TAATTTTTTTTTTATTGTACTTAATATTTTTAATTT [XGTACX_site5929]”, the “gcPBM binding intensity (ln)” value was 6.94.
With “TTACAAATATTATAAAGTACAAACCAGTAGATTTTG [XGTACX_site2272]” the “gcPBM binding intensity (ln)” value was 6.81.
In the case of “TATTTTTTTTTTTTTTTTTTTACCTTTCCACTCAAA [CACACA_negctrl_site1454]”, the “gcPBM binding intensity (ln)” value is reported as 6.76.
For “TTTTTTTTTTTTAAAAGTACATAGTAGTAATTATAG [XGTACX_site4232]”, the “gcPBM binding intensity (ln)” value was 7.21.
For “TCATTCTAAATATAAACACACATAAATATGTACATT [CACACA_site7555]”, the “gcPBM binding intensity (ln)” value was 7.09.
In the case of “ATTTCATACAGACACACACACAAACAAACATATATA [CACACA_site979]”, the “gcPBM binding intensity (ln)” value is reported as 7.43.
“GTGAAGGTTTATATGTGTACATATATGTATTATATA [XGTACX_site326]” was tested, and the “gcPBM binding intensity (ln)” value was 7.22.
With “ATTATATATACATATACACACATACGTACATACATA [CACACA_site9194]” the “gcPBM binding intensity (ln)” value was 7.36.
“TTTTTTTTTTTTAATGCACACAGTGAACTTTTACTT [CACACA_site3567]” was tested, and the “gcPBM binding intensity (ln)” value was 7.18.
“GACATTTCTTGGGATACATGCATGTCCCAGAACAAA [TGCATGCA_site271]” was tested, and the “gcPBM binding intensity (ln)” value was 6.93.
For “TTTAATAAATTGTGTACACAAAACATATAAATTTCG [CACACA_site5644]”, the “gcPBM binding intensity (ln)” value was 7.32.
In the case of “ATTATCAAGACATTGCGTACTTAAAAAAAAAAAAAT [XGTACX_site6347]”, the “gcPBM binding intensity (ln)” value is reported as 6.95.
With “TTATTATTCATATATTCACACATTAAAATTTTTCAA [CACACA_site4243]” the “gcPBM binding intensity (ln)” value was 7.
With “CATATATAATAATATTGTACATATATAATAATAATA [XGTACX_site3338]” the “gcPBM binding intensity (ln)” value was 6.93.
For “TAATTTACACCTACGTGTACACACAAAAATATGTTT [XGTACX_site1868]”, the “gcPBM binding intensity (ln)” value was 7.3.
With “TTTATTATCAAGATTGCACACCCTTATGAACTTTTT [CACACA_site3166]” the “gcPBM binding intensity (ln)” value was 7.23.
In the case of “ACAAAAAAAAAGGAAACACACAAAAAAAAAAAATAA [CACACA_site3523]”, the “gcPBM binding intensity (ln)” value is reported as 6.88.
For “ACCTATAAAAAATAATGTACAGGAAGAAATATAAGG [XGTACX_site5822]”, the “gcPBM binding intensity (ln)” value was 7.4.
In the case of “ACTATATTTCTATAATGTACAAAAATAAATCATATG [XGTACX_site3337]”, the “gcPBM binding intensity (ln)” value is reported as 7.11.
“AAGATCATATATTCGTGGGTATAAAAAGTTATAATA [TGCATGCA_negctrl_site439]” was tested, and the “gcPBM binding intensity (ln)” value was 6.85.
With “AGAAATATGTTGAAGCATTTATAATGTAGATATAAG [GTGCAC_negctrl_site640]” the “gcPBM binding intensity (ln)” value was 7.02.
In the case of “AAAAAAAAAAAAAATACACACAAACACAAATTAAAT [CACACA_site5982]”, the “gcPBM binding intensity (ln)” value is reported as 7.24.
In the case of “GTAATATTATAATATACACACATAGAATATATATAT [CACACA_site413]”, the “gcPBM binding intensity (ln)” value is reported as 8.6.
In the case of “TGTTTACACTTTTTTTGTACACATAATTTTATTTGA [XGTACX_site3760]”, the “gcPBM binding intensity (ln)” value is reported as 7.1.
For “AAAAAAAAAAAAAACACACACATATAACATATTTAA [CACACA_site6745]”, the “gcPBM binding intensity (ln)” value was 7.33.
For “TATTCTAGTCTGCTTACACACATATTTATATTTATA [CACACA_site7432]”, the “gcPBM binding intensity (ln)” value was 7.25.
In the case of “TAATATTTTATTTTTGTTGTGGATCCAAAAAAAAAA [CACACA_negctrl_site846]”, the “gcPBM binding intensity (ln)” value is reported as 6.84.
